Measured values: the supplement of paper PMC3334620
Over roughly 33,000 sequences, “E-score (-0.5 to 0.5)” has its median near -0.016; the highest 2% begin near 0.32. The list shows a part of the results.

Target: T1, Stp1 (UniProt B3LFK1)
T1 sequence: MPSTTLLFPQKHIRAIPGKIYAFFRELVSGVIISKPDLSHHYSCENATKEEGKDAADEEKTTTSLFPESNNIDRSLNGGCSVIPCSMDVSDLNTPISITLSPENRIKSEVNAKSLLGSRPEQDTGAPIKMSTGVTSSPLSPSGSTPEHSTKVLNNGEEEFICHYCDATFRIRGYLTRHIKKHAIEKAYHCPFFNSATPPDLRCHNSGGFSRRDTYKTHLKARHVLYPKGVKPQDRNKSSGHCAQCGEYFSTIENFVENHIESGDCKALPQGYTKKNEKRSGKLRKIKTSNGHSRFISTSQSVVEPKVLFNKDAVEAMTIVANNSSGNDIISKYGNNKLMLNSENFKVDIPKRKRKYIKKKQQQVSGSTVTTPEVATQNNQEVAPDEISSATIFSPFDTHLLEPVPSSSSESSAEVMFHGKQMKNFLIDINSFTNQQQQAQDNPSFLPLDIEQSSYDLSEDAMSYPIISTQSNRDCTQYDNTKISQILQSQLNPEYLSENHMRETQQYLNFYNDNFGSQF
Assay: PBM E-score (8-mer binding enrichment) (E-score (-0.5 to 0.5)); higher = stronger / more preferred TF binding; most listed sequences are background and not binding sites
Details: protein concentration: 200 nM; construct: GST-full length
Method in brief: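 Yeast transcription factors, full-length or as DNA-binding domains, were expressed with a GST tag using PURExpress in vitro transcription/translation. At about 100-200 nM they were applied to universal all-10-mer Agilent arrays, double-stranded by primer extension on fresh or once-stripped slides. Fluorescent anti-GST detected bound protein, and masliner normalised the scans. E-scores for ungapped eight-base words, pooled with reverse complements, came from the Universal PBM Analysis Suite.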

Sequence | PBM E-score
AACGGATT | 0.24
CAGGATAA | -0.0944
AGGTCCAA | -0.201
CCAGGAAC | -0.333
ATGCGGGG | 0.0301
CTCATTTA | -0.0333
CAATATTC | -0.0936
AGACAGTC | -0.205
AACTGAAG | -0.0544
CCTCGGAG | -0.0591
AGCCAGAA | -0.0789
TCAAGGCA | -0.0413
GCAATGGC | -0.116
CAAGTGCC | 0.303
ACGTTGTA | -0.0938
GGGACACC | -0.188
TACTGTGA | -0.14
CTCGGGAC | -0.125
ACGGTGCA | -0.00717
ACTGGGCG | -0.188
GCTTGAAC | 0.111
CATCAGAG | -0.00661

Sequence | PBM E-score
CCGGCGGA | 0.0459
AGCAATCC | -0.114
ACCGATAG | -0.222
CCGGACCG | -0.179
TACAAAGA | 0.0522
ATTCTCTA | 0.149
CCAGATGC | -0.172
GACGCCCC | -0.00392
ACACAAGT | 0.00705
TAAGTCCA | -0.0485
CGTGTTTC | -0.0574
TCGCCGAA | 0.105
GTAGATAA | 0.209
ATATCAGA | 0.157
TCCTCCGA | -0.286
AAGCGTAG | -0.199
AATGAGAT | 0.172
ATAACCAG | -0.17
ATCGCCAG | 0.0782
CCAAAGAC | 0.0695
CAGCGACG | -0.0819
AGCTCCCT | -0.264

Sequence | PBM E-score
GCTCTGGA | 0.178
AGCGATCC | -0.185
CAGGCATG | -0.0167
AACGATGT | 0.0569
CATAGAAA | 0.156
GTTACGTA | -0.164
ATGCAGGA | -0.258
GCTAGACC | -0.276
CCTGTACA | 0.0305
ACGGAGGG | -0.0414
AGCATGGC | 0.038
CATGTGCA | -0.252
AGTTACCA | 0.018
CTTAAGTA | 0.0413
CCAATTCA | 0.0182
GGTAAATA | -0.0705
CCACACAG | 0.0714
ATACATAA | 0.102
GCCATATA | 0.258
CGCAAGAC | -0.0977
AGGAGACG | -0.0946
GCGGGATA | 0.0653

Sequence | PBM E-score
AGAGCACA | -0.214
TACGACCA | -0.136
ACCTATAT | 0.196
AATCGCTC | -0.292
CCGGTAGA | -0.0825
CAACCAGG | -0.196
GAAGTATC | 0.144
ACTGGGAA | -0.0304
ACGTGAGT | -0.0754
AAGTTATG | 0.127
ATCTACGA | -0.159
AATAATCA | 0.132
CCATCGGC | -0.0531
CTCTTCAC | -0.0918
GCTTTTGA | -0.134
CATCATGG | -0.188
CAATTAGA | 0.0229
CACGTGAC | -0.0745
GCACGAGA | 0.0842
GCCGGTTA | -0.0255
